Measurements reported in the supplement of paper PMC4166925.
± gives the standard deviation of the averaged measurements. The full ranking holds about 33,000 sequences; the median of “E-score (dimensionless, -0.5 to 0.5)” is about -0.046, and the highest 2% start at about 0.36. This is one part of the list.

tested on: T1, SpTbr T-box DNA-binding domain (GST fusion); experiment: PBM E-score of 8-mer (E-score (dimensionless, -0.5 to 0.5)); Tbr is Tbrain of the sea star Patiria miniata (Pm) or the sea urchin Strongylocentrotus purpuratus (Sp); higher = stronger binding preference; most listed sequences are background and not binding sites; settings: the construct has about 5 more residues each side
T1 sequence: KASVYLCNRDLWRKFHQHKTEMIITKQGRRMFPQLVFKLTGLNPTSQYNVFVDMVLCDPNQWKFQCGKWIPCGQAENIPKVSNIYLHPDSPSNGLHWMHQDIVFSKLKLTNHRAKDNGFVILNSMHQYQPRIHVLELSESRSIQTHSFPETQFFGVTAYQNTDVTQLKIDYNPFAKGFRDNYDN
How it was run: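 Using the Universal PBM Analysis Suite, every ungapped 8-mer received an enrichment E-score averaged over duplicate arrays. Probe intensities came from double-stranded Universal Agilent oligonucleotide arrays incubated with 200 nM GST-fused Tbr T-box DNA-binding domain in PBS (pH 7.5). That protein was expressed in BL21 E. coli at 20 °C and purified by glutathione affinity chromatography.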

Sequence	PBM E-score of 8-mer
ACTACGTC	-0.269 ± 0.059
CTTGCCCC	0.0568 ± 0.059
ATATCTTC	-0.233 ± 0.09
GAATGGGA	-0.235 ± 0.021
CACGGTTC	0.133 ± 0.0055
CCGAATTA	-0.278 ± 0.029
AAGCACCC	-0.0675 ± 0.042
AATCTGAG	0.0009 ± 0.0013
CTTTAAAA	-0.135 ± 0.035
GTGCCCAA	-0.0375 ± 0.039
GAGTATAC	-0.177 ± 0.12
CAATACGA	-0.0472 ± 0.078
ACGGTCTG	-0.0305 ± 0.096
CAGCTACA	-0.037 ± 0.035
GCCTTGCC	-0.0967 ± 0.0056
GACTAAGC	-0.3743 ± 0.00026
CGTTAATA	0.106 ± 0.073
ATTAAGTA	-0.133 ± 0.052
GGGACAAC	-0.12 ± 0.0092
CGGTTAGC	0.142 ± 0.028
TATGACAA	0.0285 ± 0.073
CAATCAGG	0.0256 ± 0.12
GCCGGCCC	-0.26 ± 0.017
GACTGTCC	-0.0459 ± 0.057
CAAGCTTA	-0.145 ± 0.011

Sequence	PBM E-score of 8-mer
GGGAAAAC	0.0572 ± 0.038
ACCATTCG	0.221 ± 0.028
CGTAAGTC	-0.173 ± 0.094
ATTGCAAA	-0.0507 ± 0.054
ATTTGTTG	0.13 ± 0.018
ACTAGTCT	-0.117 ± 0.068
AATGGAGA	-0.25 ± 0.0069
AGGCAAAG	-0.141 ± 0.077
CGGTAGGA	-0.16 ± 0.034
GACCCTGC	-0.0273 ± 0.057
AGGGATAA	-0.128 ± 0.035
GCCGCCGA	0.0386 ± 0.066
ATTCACGA	0.288 ± 0.047
GCACCGGC	-0.128 ± 0.053
TACAAGTA	-0.149 ± 0.015
ATCCTACG	-0.263 ± 0.039
CGTGCCGA	0.0796 ± 0.033
AGGGCGTA	0.0425 ± 0.019
ATCTACAT	-0.0423 ± 0.11
GGGTACGA	-0.0119 ± 0.011
CCCACTTC	0.171 ± 0.018
ATATCCAG	-0.124 ± 0.032
ATAATCCA	-0.24 ± 0.06
ATAGGGAG	-0.00632 ± 0.036
CCGGTCGA	-0.12 ± 0.042

Sequence	PBM E-score of 8-mer
AAACATAA	-0.0335 ± 0.015
TAAACATA	-0.095 ± 0.0064
GATGTTCA	0.154 ± 0.024
GACGGTCC	-0.137 ± 0.068
ACAAGTTG	0.259 ± 0.015
AACAAACA	0.0644 ± 0.059
AAATTTAG	-0.19 ± 0.0076
GCCAACGA	0.122 ± 0.025
CCGGAGCG	-0.0436 ± 0.064
CAACGGGC	-0.0832 ± 0.017
CCTGCGTC	-0.1 ± 0.045
CTGTTATA	0.137 ± 0.071
ACGACGAG	0.0618 ± 0.011
AAGCTATT	-0.254 ± 0.023
GATTGTAA	-0.0389 ± 0.047
AAACGGAG	-0.078 ± 0.042
CAACTTAG	0.0415 ± 0.1
CTACGCCA	0.0492 ± 0.042
CCGAAGTC	-0.163 ± 0.017
GCACACCC	0.279 ± 0.022
ACTACGCT	-0.153 ± 0.062
TGCATCCA	0.000615 ± 0.1
TCAGGGCA	-0.168 ± 0.023
TCTGTTAA	0.131 ± 0.02
AAACCCCT	-0.117 ± 0.0024

Sequence	PBM E-score of 8-mer
ATTAGAAC	-0.159 ± 0.04
ACATGAGA	-0.00222 ± 0.05
AGCACGCA	0.122 ± 0.031
GGTAAGCA	-0.0719 ± 0.051
ACGGGTTG	-0.00777 ± 0.037
ATGGGCGC	0.0238 ± 0.11
AGCCTGCG	-0.00705 ± 0.00039
GTCCCCAC	0.0254 ± 0.019
GAGTGGTA	0.0432 ± 0.092
ATGTCAAT	0.118 ± 0.0044
AATCGAAC	-0.112 ± 0.033
ATTTGGGA	-0.224 ± 0.011
ACGTGCCT	-0.0516 ± 0.0046
ATCTTCGG	-0.103 ± 0.0064
GTTACAAC	-0.106 ± 0.12
AAACTAAT	-0.21 ± 0.057
ATCCCATC	-0.191 ± 0.038
GACTAGAA	-0.114 ± 0.02
CTTGGGTA	-0.202 ± 0.013
ATCGGCGG	-0.0323 ± 0.077
CGGACCCC	-0.324 ± 0.016
ACATCAGC	0.00954 ± 0.0068
TATAGGAA	-0.143 ± 0.01
GACTCACC	-0.0566 ± 0.12
GCCACTCA	0.19 ± 0.026

Sequence	PBM E-score of 8-mer
CTTCGAAC	0.0134 ± 0.012
GTATCAGA	-0.15 ± 0.048
GGACTGCA	-0.0104 ± 0.084
CAGTTGTC	0.219 ± 0.011
AGGATGGA	-0.243 ± 0.015
AGTACCCC	-0.1349 ± 0.00026
ATTGCAAT	-0.0496 ± 0.018
ATCGACAA	0.213 ± 0.0072
GGATAACA	0.212 ± 0.014
ACGTTCAA	-0.145 ± 0.032
AGCATGTC	-0.145 ± 0.002
ATATTAGG	-0.142 ± 0.14
ATCAAAGA	-0.185 ± 0.033
GATTCGGC	-0.0689 ± 0.016
CCCTAGAG	-0.059 ± 0.064
GCCTATCC	-0.15 ± 0.12
TAACGACA	0.183 ± 0.023
GTAGCTCA	-0.16 ± 0.041
AAATACAT	-0.0953 ± 0.0026
ACAACTGC	0.2037 ± 0.00041
AGGGACCT	-0.0856 ± 0.051
ATGATCTG	-0.0393 ± 0.0089
CAACATCC	0.0369 ± 0.026
CGACAAGC	0.289 ± 0.0056
CGCTGTGC	-0.0295 ± 0.044

Sequence	PBM E-score of 8-mer
CCGGGAGC	-0.171 ± 0.0072
CCAAAGTA	-0.146 ± 0.011
AGGCTGAG	-0.0453 ± 0.037
CAAACCAC	-0.0733 ± 0.072
ACATCAAT	-0.0979 ± 0.057
GAAGTTAA	0.0639 ± 0.011
AATAACAC	0.294 ± 0.062
GACCAAGC	-0.148 ± 0.036
AAACCCAG	-0.0988 ± 0.024
ACATCAAC	-0.0504 ± 0.083
CCACCAAG	-0.145 ± 0.076
GGACAAAC	-0.0669 ± 0.0088
ATCAATGC	-0.161 ± 0.033
AACATCCA	0.0221 ± 0.013
GAAAAGGA	-0.163 ± 0.063
ATAGCCAG	-0.198 ± 0.013
CCTGATCG	-0.0377 ± 0.024
TCCTGCCA	0.107 ± 0.03
GAGCTAAA	-0.0145 ± 0.028
AAATTGAT	0.0894 ± 0.12
ATTTGTGA	0.181 ± 0.085
ATGGAAAA	-0.23 ± 0.058
ACCTCCAA	-0.00451 ± 0.035
ACGGGTCA	0.0479 ± 0.043
AAAGCTTT	-0.237 ± 0.075

Sequence	PBM E-score of 8-mer
AAAACAGT	-0.113 ± 0.035
ACAGCCCG	-0.0215 ± 0.04
ATAGTCTC	-0.00177 ± 0.0083
ACTCAGAC	0.0611 ± 0.018
AGTACGGA	-0.164 ± 0.002
AGTCTGAA	-0.149 ± 0.056
ACGCCTTG	0.325 ± 0.024
AGAGAGAA	0.0259 ± 0.048
AAAAGGCC	-0.103 ± 0.0052
CTGATGGA	-0.181 ± 0.036
CAATAAAA	-0.0938 ± 0.0058
CCGGCTGC	-0.122 ± 0.055
AATCTCTG	-0.0963 ± 0.053
AGAGGAAA	0.0297 ± 0.12
CTGTAGAA	-0.1531 ± 0.0011
GAGTCAGA	-0.221 ± 0.018
AACTCCGA	-0.0892 ± 0.0098
ACTAACAG	0.1931 ± 0.00053
CCAATTAA	0.00248 ± 0.048
AAAAACGG	-0.0287 ± 0.032
AGTGTTAA	0.436 ± 0.021
CCGTTATA	-0.0959 ± 0.051
ACACAGAG	0.0256 ± 0.037
AGGACAAT	-0.146 ± 0.055
ATGCATTA	-0.0389 ± 0.011

Sequence	PBM E-score of 8-mer
GATAGCAA	0.156 ± 0.0049
ACTGAGCC	-0.303 ± 0.016
CAGAGAGA	-0.036 ± 0.025
ATAACTGG	-0.102 ± 0.036
GAAGGAGA	-0.273 ± 0.03
AAATCCAA	-0.228 ± 0.015
GGAGAACA	-0.121 ± 0.018
CAAACCTG	0.00364 ± 0.022
CTAGCAAG	-0.0866 ± 0.056
ACAATCCG	-0.0266 ± 0.0027
GGTAAAAC	-0.154 ± 0.014
ATGGAGGA	-0.196 ± 0.022
CTGAGCGA	-0.0903 ± 0.098
AGGGCGCA	-0.0499 ± 0.024
GAGGCCTA	-0.113 ± 0.082
CACGTATC	0.134 ± 0.024
CAGGGTCA	-0.211 ± 0.069
CAAGGTGG	0.311 ± 0.015
CACAACGA	0.0767 ± 0.036
CCTTGTGA	0.145 ± 0.0077
CGCTGCCC	-0.0176 ± 0.073
CGGTTTCA	0.132 ± 0.052
AGCTAAGG	-0.213 ± 0.0096
ACCACCAC	0.0481 ± 0.094
AGAAATTC	-0.141 ± 0.097

Sequence	PBM E-score of 8-mer
AAATCGCA	0.285 ± 0.0084
CAGTGCCG	-0.083 ± 0.054
GCAGATTA	-0.0967 ± 0.028
AATTATTC	-0.121 ± 0.012
CGGGGTAG	-0.252 ± 0.064
AAAAGTAC	-0.218 ± 0.1
GGTTAGTA	-0.2678 ± 0.0019
ATGTTACA	0.0673 ± 0.018
CCAGATTA	-0.237 ± 0.06
ACTAGTTC	0.0744 ± 0.0059
ACCCCTTG	-0.0283 ± 0.033
ATATACAG	-0.0391 ± 0.012
GCGAACGC	0.3749 ± 0.0018
CAGCTTGC	0.11956 ± 5.7e-05
CACTGTTC	0.0947 ± 0.049
TAAGTTCA	-0.115 ± 0.032
CTAGCAGC	0.0341 ± 0.05
GCATCGTA	-0.118 ± 0.072
AGTTCGGG	0.0206 ± 0.037
